Source: the supplement of paper PMC8792480
Counter-ions that a name gives are not always drawn. Some of the results follow. Repeats are few or missing, and single values can be far off.

Columns and labels:
[1] = tested on: A549; experiment: cell-surface PD-L1 MFI ratio relative to radiation alone (isotype-subtracted); higher = higher PD-L1 surface expression; settings: inducer: radiation 8 Gy; 10 µM; 24 h
Method: (§1)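 A549 and H460 NSCLC cells were treated with each library drug at 10 uM, then with radiation (8 Gy) or cisplatin (4 uM), and incubated for 24 h. Cell-surface PD-L1 was measured by flow cytometry as an MFI ratio: (MFI drug+inducer - MFI isotype)/(MFI inducer alone - MFI isotype). Hits were defined as ratio < 0.75.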

[2] = tested on: NCI-H460; experiment: as above; settings: inducer: radiation 8 Gy; 10 µM; 24 h
Method: as §1

[3] = tested on: NCI-H460; experiment: cell-surface PD-L1 MFI ratio relative to cisplatin alone (isotype-subtracted); higher = higher PD-L1 surface expression; settings: inducer: cisplatin 4 uM; 10 µM; 24 h
Method: as §1

[4] = tested on: A549; experiment: as above; settings: inducer: cisplatin 4 uM; 10 µM; 24 h
Method: as §1
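For cell-surface PD-L1 MFI ratio relative to radiation alone (isotype-subtracted) in this document: surface PD-L1 on NSCLC cells stained with a PE-labelled anti-human PD-L1 antibody before flow cytometry, screening a library of roughly two hundred mostly kinase and epigenetic inhibitors.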

Row | Structure (SMILES) | cell-surface PD-L1 MFI ratio [1] | cell-surface PD-L1 MFI ratio [2] | cell-surface PD-L1 MFI ratio [3] | cell-surface PD-L1 MFI ratio [4]
1 | CN1CCN(Cc2ccc(-c3cnc4[nH]cc(-c5ccc6[nH]ccc6c5)c4c3)cc2)CC1 | inactive: 1.16 | active: 0.732 | inactive: 0.84 | –
2 | Nc1nc(NC2CC2)cc(-c2cccc(Cl)c2Cl)n1 | inactive: 0.851 | inactive: 0.958 | inactive: 0.928 | –
3 | C=CCn1c(=O)c2cnc(Nc3ccc(N4CCN(C)CC4)cc3)nc2n1-c1cccc(C(C)(C)O)n1 [Adavosertib (MK-1775)] | inactive: 1.06 | inactive: 1.24 | inactive: 1.14 | –
4 | Cc1ccc(C(=O)Nc2cccc(C(F)(F)F)c2)cc1Nc1nc(-c2cccnc2)nc2c1cnn2C | inactive: 0.84 | inactive: 1.04 | inactive: 0.984 | –
5 | O=C(N/N=C/c1ccc(O)c(O)c1)c1cc2ccccc2cc1O [Dynasore] | inactive: 0.888 | inactive: 1.11 | inactive: 0.792 | –
6 | O=S(=O)(c1cccc2cnccc12)N1CCCNCC1 [Fasudil (HA-1077) HCl] | inactive: 0.903 | inactive: 1.08 | inactive: 0.968 | –
7 | O=C(c1ccc(Nc2nccc(-c3cc4ccccc4s3)n2)cc1)N1CCC(N2CCCC2)CC1 [IKK-16 (IKK Inhibitor VII)] | inactive: 1.52 | inactive: 1.05 | inactive: 1.15 | –
8 | CC(C)n1c(=O)n(C)c2cnc3cc(F)c(-c4ccc(OCCCN5CCCCC5)nc4)cc3c21 | inactive: 0.896 | active: 0.732 | inactive: 0.944 | –
9 | CC(C)(CO)n1cc(C(=O)c2cncc(NC(=O)Cc3ccc(Cl)cn3)c2)c2cnc(N)nc21 | inactive: 0.833 | inactive: 1.05 | inactive: 1.13 | –
10 | CC[C@H](NC(=O)[C@H](C)NC)C(=O)N1C[C@@H](O)C[C@H]1Cc1c(-c2[nH]c3cc(F)ccc3c2C[C@@H]2C[C@H](O)CN2C(=O)[C@H](CC)NC(=O)[C@H](C)NC)[nH]c2cc(F)ccc12 [Birinapant] | inactive: 0.791 | inactive: 1.82 | inactive: 1.15 | –
11 | CCCCCCCCc1ccc(CCC(N)(CO)CO)cc1 [Fingolimod] | – | inactive: 0.768 | inactive: 1.07 | inactive: 0.918
12 | Cc1n[nH]c2ncc(C(=O)N3CCC[C@H]3c3ccc(Cl)cc3)cc12 | active: 0.667 | inactive: 1.01 | inactive: 0.848 | –
13 | O=C([C@@H](Cc1cccc(C(F)(F)F)c1)NS(=O)(=O)c1cc(F)c2c(c1)CCNC2)N1CCCC1 | inactive: 0.866 | inactive: 0.905 | active: 0.55 | –
14 | CNC(=O)c1cc(Oc2ccc(NC(=O)Nc3ccc(Cl)c(C(F)(F)F)c3)c(F)c2)ccn1 [Regorafenib] | inactive: 1.11 | inactive: 1.1 | inactive: 0.84 | –
15 | Cc1ccc(S(=O)(=O)OCC(=O)Nc2ccc(C(=O)O)c(O)c2)cc1 | inactive: 1.17 | inactive: 1.25 | inactive: 1.13 | –
16 | CN(C)Cc1cccc(N=C(c2ccccc2)c2c(O)[nH]c3cc(C(=O)N(C)C)ccc23)c1 | – | inactive: 1.26 | inactive: 0.944 | inactive: 1.21
17 | CN1CCN(c2nc(C3=C(c4c[nH]c5ccccc45)C(=O)NC3=O)c3ccccc3n2)CC1 [Sotrastaurin] | inactive: 3.49 | inactive: 2.99 | inactive: 1.89 | –
18 | CC(C)(C(=O)NCC(F)(F)C(F)(F)F)C(=O)N[C@@H]1C(=O)Nc2ccccc2-c2ccccc21 | – | inactive: 1.29 | inactive: 1.07 | active: 0.662
19 | C[C@@H]1CCN(C(=O)CC#N)C[C@@H]1N(C)c1ncnc2[nH]ccc12 | – | inactive: 0.881 | inactive: 1.33 | inactive: 1.13
20 | Cc1nc(Nc2ncc(C(=O)Nc3c(C)cccc3Cl)s2)cc(N2CCN(CCO)CC2)n1 [Dasatinib] | inactive: 0.797 | inactive: 1.53 | active: 0.656 | –
21 | Cc1cc(Nc2cc(N3CCN(C)CC3)nc(Sc3ccc(NC(=O)C4CC4)cc3)n2)n[nH]1 [Tozasertib (VX-680, MK-0457)] | inactive: 1.17 | inactive: 1.54 | active: 0.706 | –
22 | CO[C@H]1C[C@@H]2CC[C@@H](C)[C@@](O)(O2)C(=O)C(=O)N2CCCC[C@H]2C(=O)O[C@H]([C@H](C)C[C@@H]2CC[C@@H](O)[C@H](OC)C2)CC(=O)[C@H](C)/C=C(\C)[C@@H](O)[C@@H](OC)C(=O)[C@H](C)C[C@H](C)/C=C/C=C/C=C/1C [Rapamycin (Sirolimus)] | – | inactive: 1.1 | inactive: 1.19 | inactive: 0.774
23 | COc1cc2ncnc(Nc3ccc(F)c(Cl)c3)c2cc1OCCCN1CCOCC1 [Gefitinib] | inactive: 1.01 | inactive: 1.32 | inactive: 1.58 | –
24 | OCC1OC(O)CC(O)C1O [2-Deoxy-D-glucose] | inactive: 0.97 | inactive: 1.31 | inactive: 1.18 | –
25 | Cc1[nH]c2ccccc2c1CCNCc1ccc(/C=C/C(=O)NO)cc1 [Panobinostat] | inactive: 1.06 | inactive: 0.786 | inactive: 0.872 | –
26 | CN(C)C/C=C/C(=O)Nc1ccc(C(=O)Nc2cccc(Nc3ncc(Cl)c(-c4c[nH]c5ccccc45)n3)c2)cc1 | – | inactive: 1.4 | inactive: 1.21 | inactive: 1.02

Row | Structure (SMILES) | cell-surface PD-L1 MFI ratio [1] | cell-surface PD-L1 MFI ratio [2] | cell-surface PD-L1 MFI ratio [3] | cell-surface PD-L1 MFI ratio [4]
27 | CS(=O)(=O)c1ccc(C(=O)Nc2ccc(Cl)c(-c3ccccn3)c2)c(Cl)c1 [Vismodegib (GDC-0449)] | inactive: 1.14 | inactive: 1.45 | inactive: 1.14 | –
28 | CCc1cnn2c(NCc3ccc[n+]([O-])c3)cc(N3CCCC[C@H]3CCO)nc12 | – | active: 0.613 | active: 0.689 | active: 0.602
29 | CN1C(=O)c2sccc2N(C)c2nc(Nc3ccc(S(N)(=O)=O)cc3)ncc21 | – | inactive: 0.881 | inactive: 0.984 | inactive: 1.06
30 | CC(C)Oc1ccc(-c2c[nH]cc2CN(C)CCN)cc1 | – | inactive: 2.1 | inactive: 1.09 | inactive: 0.77
31 | COc1ccc(-c2cc3nccn3c(Nc3ncccc3C(N)=O)n2)cc1OC | – | inactive: 1.16 | inactive: 1 | inactive: 0.953
32 | CC(=O)c1cnc2ccc(-c3cc(Cl)c(O)c(Cl)c3)nc2c1N[C@H]1CC[C@H](CN(C)C)CC1 | – | inactive: 1.08 | inactive: 1.3 | inactive: 1.8
33 | COc1ccc2c(c1)[C@]1(C[C@H]1c1ccc3c(/C=C/c4ccc(CN5C[C@@H](C)O[C@@H](C)C5)cc4)n[nH]c3c1)C(=O)N2 | – | inactive: 1.24 | inactive: 1.85 | inactive: 1.2
34 | CC[C@@H](N)CNc1ccnc(-c2cc(-c3cnn(C)c3)ccc2O)n1 | – | inactive: 1.1 | inactive: 0.896 | inactive: 0.862
35 | CCC(C)(C)C(=O)O[C@H]1C[C@@H](C)C=C2C=C[C@H](C)[C@H](CC[C@@H]3C[C@@H](O)CC(=O)O3)[C@H]21 [Simvastatin] | – | inactive: 1.31 | inactive: 1.82 | inactive: 1.08
36 | CCOC(=O)C1=C(C)NC(=S)NC1c1cccc(O)c1 (stereo not drawn) [Monastrol] | – | inactive: 0.988 | active: 0.681 | active: 0.426
37 | Nc1ncn([C@@H]2O[C@H](CO)[C@@H](O)[C@H]2O)c(=O)n1 [Azacitidine] | – | inactive: 1.61 | inactive: 0.856 | inactive: 0.924
38 | CC(=O)Oc1ccccc1C(=O)O [Aspirin] | – | inactive: 0.935 | inactive: 1.35 | active: 0.474
39 | CCC(=O)Nc1cccc(Oc2nc(Nc3ccc(N4CCN(C)CC4)cc3OC)ncc2Cl)c1 | – | inactive: 1.17 | inactive: 1.18 | inactive: 0.759
40 | C/C(=C\C(=O)Nc1ccccc1C(=O)O)c1ccc2ccccc2c1 | – | inactive: 1.79 | inactive: 1.07 | active: 0.735
41 | COc1cc2nc(N3CCCN(C)CC3)nc(NC3CCN(Cc4ccccc4)CC3)c2cc1OC | – | inactive: 1.95 | inactive: 1.26 | inactive: 1.26
42 | COc1cc(N2CCN(C)CC2)ccc1Nc1nccc(-c2cn(C)c3cnccc23)n1 | – | inactive: 1.06 | inactive: 1.07 | inactive: 1.05
43 | N[C@@H]1CCCN(c2c(/C=C3\SC(=O)NC3=O)cccc2-c2ccccc2)C1 | – | inactive: 1.04 | inactive: 1.33 | inactive: 1.41
44 | O=C(CCCCCCC(=O)Nc1ccccc1)NO [Vorinostat (SAHA, MK0683)] | – | active: 0.702 | inactive: 0.952 | inactive: 1.58
45 | Cc1c(F)cc(C(=O)NC2CC2)cc1-c1ccc(C(=O)NCC(C)(C)C)cn1 | – | inactive: 0.958 | inactive: 1.22 | inactive: 1.15
46 | Cc1ccc(C(=O)N(CCCN)[C@@H](c2nc3cc(Cl)ccc3c(=O)n2Cc2ccccc2)C(C)C)cc1 | – | inactive: 1.09 | inactive: 1.83 | inactive: 1.1
47 | CCCCCCCCCCCCCCCCn1cc[n+](Cc2ccccc2)c1C | – | active: 0.738 | inactive: 1.02 | inactive: 1.67
48 | Cc1cc(-c2ncc(CC(=O)Nc3ccc(-c4cnccn4)cn3)cc2C)ccn1 | – | inactive: 1.43 | inactive: 1.72 | active: 0.591
49 | CS(=O)(=O)c1ccc(Oc2cc(F)cc(C#N)c2)c2c1[C@H](O)C(F)(F)C2 | – | inactive: 1.01 | active: 0.613 | active: 0.452
50 | COCCOc1nc(-c2ccc(Cl)c(Cl)c2)n(-c2ccc(NC(=O)CCl)cc2)n1 [MI-2 (MALT1 inhibitor)] | – | inactive: 1.2 | inactive: 1.13 | inactive: 0.862
51 | O=C(O)CCCc1cc2cc(Cl)ccc2n1S(=O)(=O)c1ccc2ncsc2c1 [Lanifibranor(IVA-337)] | – | inactive: 1.23 | inactive: 1.21 | inactive: 0.798
